# In paper PMC11170894 (2024):
# B1: Flag-TBK1 wild-type [human] / mCherry-OPTN wild-type [human] (parent complex)
# chain 1: MQSTSNHLWLLSDILGQGATANVFRGRHKKTGDLFAIKVFNNISFLRPVDVQMREFEVLKKLNHKNIVKLFAIEEETTTRHKVLIMEFCPCGSLYTVLEEPSNAYGLPESEFLIVLRDVVGGMNHLRENGIVHRDIKPGNIMRVIGEDGQSVYKLTDFGAARELEDDEQFVSLYGTEEYLHPDMYERAVLRKDHQKKYGATVDLWSIGVTFYHAATGSLPFRPFEGPRRNKEVMYKIITGKPSGAISGVQKAENGPIDWSGDMPVSCSLSRGLQVLLTPVLANILEADQEKCWGFDQFFAETSDILHRMVIHVFSLQQMTAHKIYIHSYNTATIFHELVYKQTKIISSNQELIYEGRRLVLEPGRLAQHFPKTTEENPIFVVSREPLNTIGLIYEKISLPKVHPRYDLDGDASMAKAITGVVCYACRIASTLLLYQELMRKGIRWLIELIKDDYNETVHKKTEVVITLDFCIRNIEKTVKVYEKLMKINLEAAELGEISDIHTKLLRLSSSQGTIETSLQDIDSRLSPGGSLADAWAHQEGTHPKDRNVEKLQVLLNCMTEIYYQFKKDKAERRLAYNEEQIHKFDKQKLYYHATKAMTHFTDECVKKYEAFLNKSEEWIRKMLHLRKQLLSLTNQCFDIEEEVSKYQEYTNELQETLPQKMFTASSGIKHTMTPIYPSSNTLVEMTLGMKKLKEEMEGVVKELAENNHILERFGSLTMDGGLRNVDCL
# chain 2: not shown
# Variants of: B1
# Experiment: co-immunoprecipitation (IP: Flag, IB: mCherry), quantified; HEK293T cells; parent: 1; read off a plot
row,Variant,response
1,chain 1 E696G,~5.7 a.u.
2,chain 1 E232Q,~1.6 a.u.

# Results, then the variant that gave them:
row,response,Variant
1,~0.58 a.u.,chain 1 I37T
2,~0.62 a.u.,chain 1 T77I
